Measurements published in ChEMBL document CHEMBL1157539, “Thousands of chemical starting points for antimalarial lead identification” (Nature, 2010).
“And” between values parts separate entries of the source, which are not always exact repeats. Equal entries are not always repeated. Over roughly 13,000 compounds, “IFI” has its median near 4; the highest 2% begin near 17. The list shows a part of the results.

Assay: GSK_TCMDC: Inhibition Frequency Index (IFI). The number of non-kinase HTS assays where a compound showed > 50 % inhibition, expressed as a percentage of the number of such assays in which the compound was tested (-0 is zero)
Format: functional

| SMILES | IFI |
| --- | --- |
| COc1cccc(OC)c1OCCCON1C(=N)N=C(N)NC1(C)C | 2.9% |
| Cc1cc(NCCc2ccccc2)nc(NC(=N)Nc2ccc(Cl)cc2)n1 | 3.82% |
| O=c1cc(NCCCNCc2cc(C(F)(F)F)ccc2F)[nH]c2ccccc12 | 2.17% |
| COc1cccc(CN2CCCC(COC(c3ccc(F)cc3)c3ccc(F)cc3)C2)c1O (stereo unspecified) | 6.3% |
| CC(CCc1ccccc1)NCC(O)c1ccc2c3c(cccc13)C(=O)N2C (stereo unspecified) | 0.75% |
| COc1nc2c(CCN3CC[C@H](NCc4cc(C#N)c5c(c4)OCCO5)[C@H](O)C3)ccnc2cc1F | 2.13% |
| Cn1c(/C=C/C(=O)NC2CCC(CCN3CCc4ccc(C#N)cc4CC3)CC2)cc2ccccc21 (stereo unspecified) | 1.45% |
| CCCCCCN1CCCN(Cc2ccc(C(=O)Nc3ccc(C(C)C)cc3)cc2)CC1 | 19.7% |
| Cc1cc(C2CCN(CCCCNC(=O)c3ccc(NC(=O)c4ccc(Cl)cc4)cc3)CC2)c(C)cc1OC(C)C | 1.52% |
| Cc1ccc(N)cc1-c1nc(NC2CC(C)(C)NC(C)(C)C2)nc2c1ccc(=O)n2-c1c(F)cccc1F | 4% |
| CCN(C(=O)CSc1cc(C)c2cc(C)cc(C)c2n1)C1CCS(=O)(=O)C1 (stereo unspecified) | 2.24% |
| CN(C)S(=O)(=O)c1ccc(C(=O)N(c2nc(-c3ccccc3)cs2)C2CCCCC2)cc1 | 2.22% |
| CC(C)(C)c1nn(-c2ccccc2)c2[nH]c(=O)c(CNC3CCCCC3)cc12 | -0% |
| CCN(Cc1ccc(-c2ccc(C(F)(F)F)cc2)cc1)C(=O)Cn1c(SCc2cccc(F)c2F)cc(=O)c2cc(CN3CCCCC3)ccc21 | 13.2% |
| O=C(/C=C/c1ccc(Cl)c(Cl)c1)NCCCCCN1CCCN(C(=O)Nc2cc(F)cc(F)c2)CC1 | 6.71% |
| Cc1cccc2nc(-c3cccc(-c4ccc(NC(=O)C(=O)c5cccn5C)cc4)c3)[nH]c12 | 1.83% |
| CC(=NNC(=N)N)c1ccc2c(c1)Cc1ccccc1-2 | 7.19% |
| Cc1cc(N/N=C/c2cccc([N+](=O)[O-])c2)c2ccc(F)cc2n1 | 0.74% |
| O=C(O)C1Cc2c([nH]c3ccccc23)C(c2ccc(Cl)cc2Cl)N1 (stereo unspecified) | 1.47% |
| O=S(=O)(c1ccccc1C(F)(F)F)C1CC2CCC(C1)N2S(=O)(=O)c1ccc(Cl)c(C(F)(F)F)c1 (stereo unspecified) | 1.59% |
| COc1ccc2nccc([C@@H](O)CN3CCC(NCCOc4ccccc4[N+](=O)[O-])CC3)c2c1 | 4.41% |
| COc1ccc(CN2CCN(Cc3cc(Cl)ccc3O)CC2CCO)c(C)c1C (stereo unspecified) | 15.8% |
| Cc1ccc(Cc2c(C)nc3nc(N)nc(N)c3c2C)cc1 | 2.19% |

| SMILES | IFI |
| --- | --- |
| CCC(NCc1ccc(-c2cncc(C(=O)NCC(C)C)c2)cc1)c1ccccc1 (stereo unspecified) | 3.28% |
| COc1ccc(NS(=O)(=O)c2ccc(C(=O)Nc3ccc(OC(F)(F)F)cc3)cc2)cc1N1CCN(CC2CC2)CC1 | 8.49% |
| CC(=O)Nc1ccc(S(=O)(=O)N(Cc2cccc(Oc3ccccc3)c2)C2CCN(C/C=C(\C)CCC=C(C)C)CC2)cc1 | 3.52% |
| O=C(NCc1ccc(F)cc1)Nc1ccc(-c2cccc(-c3nc4cc(C(F)(F)F)ccc4[nH]3)c2)cc1 | 6.56% |
| COc1cccc2c(NCc3ccccc3)nc(NCCCN3CCCCC3C)nc12 (stereo unspecified) | 1.44% |
| C=CCc1cc(Br)ccc1OCCCOc1c(C)nc(N)nc1N | 8.03% |
| CCC[C@@H]([C@@H](CC1CCCCC1)C(=O)N[C@H](C(=O)Nc1nccs1)[C@@H](C)OCc1ccccc1)N(O)C=O | 5.3% |
| CCOc1ccc(C(C)NC(=O)C2COc3ccccc3O2)cc1OCC (stereo unspecified) | 0% |
| Cc1ccc2[nH]c3ccccc3c(=O)c2c1 | 1.52% |
| O=C(NCCN1CCCC1)c1cc(-c2ccc(Cl)c(O)c2)c(-c2ccncc2)o1 | 0.8% |
| CN(CCNCc1ccc(-c2cccc(-c3nc4ccccc4[nH]3)c2)cc1)S(C)(=O)=O | 0% |
| Cc1cc(N[C@@H](Cc2ccccc2)C(=O)NCCc2ccccc2)nc(NCc2ccccc2C)n1 | 9.52% |
| Cc1ccc2c(Cc3cnc(N)nc3N)cc(C)c(N)c2n1 | 3.79% |
| O=c1cc(NCCCNCc2cccc(OC(F)(F)C(F)F)c2)[nH]c2ccccc12 | 2.17% |
| Cc1cc(NCCC(=O)NCCOc2ccccc2)nc(NCc2ccccc2C)n1 | 4.88% |
| Cn1c(CN2CCC(N3CCc4cc(NC(=O)c5ccco5)ccc43)C2)cc2ccccc21 (stereo unspecified) | 6.67% |
| CCCCCCNCc1c(O)ccc2c(CNCCCCCC)c(O)ccc12 | 2.19% |
| Cc1cccc2nc(-c3ccc(-c4ccc(CN5CCN(c6ccncc6)CC5)cc4)cc3)[nH]c12 | 14.2% |
| COc1cc2nc(N3CCC(CNC(=O)c4ccc(-c5ccc(C#N)cc5)cc4)CC3)nc(N)c2cc1OC | 2.8% |
| c1ccn2c(-c3ncnc(NCc4ccc5c(c4)CCO5)n3)cnc2c1 | -0% |
| CN1CCN(Cc2ccc(-c3ccc4c(Nc5ccc(F)cc5Cl)ccnc4c3)o2)CC1 | 3.57% |
| CCCCCCc1c(C)nc2cc(OC)ccc2c1O | 0.75% |
| Cc1ccc(C)c(CC(=O)N2CCC(n3c(C)nc4ccc(F)cc43)CC2)c1 | -0% |

| SMILES | IFI |
| --- | --- |
| COc1ccccc1C1CCN(CCN2CCC(NC(=O)c3ccc(-c4ccc(C#N)cc4)cc3)CC2)CC1 | 2.75% |
| CC(C)C[C@H](NC(=O)c1cc2cc(OCCN3CCNCC3)ccc2o1)C(=O)NC1CC[C@@H](C)N(C(=O)Nc2ccc(Cl)cc2)CC1=O (stereo partly specified) | 3.94% |
| O=C(C=Cc1ccc(Cl)c(Cl)c1)NCCCCCN1CCC(CCNC(=O)c2ccc3c(c2)OCO3)CC1 | 5.26% |
| CC1(C)N=C(N)N=C(N)N1c1ccc(Cl)c(Cl)c1 | 2.82% |
| O=C(NCCNc1ccnc(Nc2ccc(F)cc2)n1)Nc1ccccc1F | 3.08% |
| COc1cccc2c1CCN(CCN1CCC(NC(=O)c3ccc(-c4cccc(Cl)c4Cl)cc3)CC1)C2 | 7.63% |
| Brc1cccc(Nc2nccc(Nc3ccc(Oc4ccccc4)cc3)n2)c1 | 2.22% |
| CN(C)C(=O)c1cc(CNCc2ccccc2)ccc1-c1cccc(CNCc2ccc(-c3ccccc3)cc2)c1 | 6.47% |
| CC(C)Oc1ccc2ccccc2c1CNCCCCCCNCc1c(OC(C)C)ccc2ccccc12 | 18.5% |
| CS(=O)(=O)c1ccc(-c2cncc(Cl)n2)cc1 | 0% |
| Cc1[nH]c(C)c(-c2cc3ccccc3o2)c(=O)c1Cl | 1.83% |
| COc1cc(Cc2cnc(N)nc2N)ccc1Oc1ccc(N)cc1 | 2.97% |
| C/C=C/COc1ccc2ccccc2c1CNCCCCCCCCNCc1c(OC/C=C/C)ccc2ccccc12 | 16.6% |
| NC1CCN(CCNCc2cccc(-c3ccc(-c4nc5cc(C(F)(F)F)ccc5[nH]4)cc3)c2)C1 (stereo unspecified) | 4.23% |
| Cc1nc2c(-n3cc(Cn4ccnc4)c4ccccc43)ncnc2n1-c1ccc(Cl)cc1Cl | 1.71% |
| Cc1ccc(-c2cc(C(=O)Nc3ccc(S(=O)(=O)N4CCCCC4)cc3)[nH]n2)c(O)c1 | 0.99% |
| CC(=O)Nc1ccc(OCCCCCOc2ccc(NC(C)=O)cc2Cl)c(Cl)c1 | -0% |
| CCN1CCN(C(=O)NC(C(=O)N2CCCC(COc3ccc(Cc4ccccc4)cc3)C2)c2cccs2)C(=O)C1=O (stereo unspecified) | 1.46% |
| Cc1cccc2nc(-c3ccc(-c4ccc(CNCCCN5CCCC5=O)cc4)s3)[nH]c12 | 4.85% |
| COc1cccc(Nc2nc(NCCO)c3ccccc3n2)c1 | 1.42% |
| CCCCn1c(SC(C)C)nc2c(c1=O)C1(CCCCC1)Cc1ccccc1-2 | -0% |
| CCCCCCN1CCCN(Cc2ccc(C(=O)Nc3ccc(C)c(F)c3)cc2)CC1 | 10.3% |
| COc1ccc(NC(=O)Nc2cccc(-c3cccc(-c4nc5cc(F)ccc5[nH]4)c3)c2)cc1 | 5.1% |

| SMILES | IFI |
| --- | --- |
| COc1ccc(-n2ccnc2SCC(=O)Nc2cc(Cl)ccc2OC)c(OC)c1 | 2.74% |
| O=C(/C=C/c1ccc(Cl)cc1)Nc1ccc2nc(CN3CCCC3)ccc2c1 | 8.33% |
| Cc1cccc(CN2CCC(Oc3ccc(NC(=O)c4cccs4)cc3Cl)CC2)n1 | 3.33% |
| CN1CCCC(CN2CCN(Cc3ccc(-c4ccc(-c5nc6ccccc6[nH]5)s4)cc3)CC2)C1 (stereo unspecified) | 7.04% |
| CCOc1ccc2nc3cc(N)ccc3c(N)c2c1 | 2.08% |
| N#Cc1ccc(-c2ccc(OCC(O)CN3CCCN(C(=O)C(c4ccc5c(c4)OCO5)N4CCN(C/C=C/c5ccccc5)CC4)CC3)cc2)cc1 (stereo unspecified) | 6.04% |
| COc1ccc2nccc([C@@H](O)CN3CCC(NCc4cc5cccnc5[nH]4)CC3)c2n1 | 3.88% |
| Oc1ccc(Cl)cc1CN1CCC2(CCCN(CC3CCC3)C2)C1 (stereo unspecified) | 4.65% |
| CN1CCC(C(=O)N(Cc2ccc(-c3ccc(CNCCc4ccc(S(C)(=O)=O)cc4)cn3)cc2)Cc2cccc(F)c2)CC1 | 2.78% |
| COC(=O)/C=C/c1ccc(CCC(C)NCC(O)c2cccc(Cl)c2)cc1 (stereo unspecified) | 2.9% |
| O=c1cc(NCCCNCc2sc(Br)c(Br)c2Br)[nH]c2ccccc12 | 5.11% |
| CN(Cc1cnc2nc(N)nc(N)c2n1)c1ccc(C(=O)N[C@@H](CCC(=O)O)C(=O)O)cc1 | 1.46% and -0% and 0.74% |
| COc1ccc(Cc2c(Cl)nc3nc(N)nc(N)c3c2C)c(OC)c1OC | 0.8% |
| COc1cc2nc(N3CCC(CNC(=O)c4ccc(-c5ccc(Cl)cc5)cc4)CC3)nc(N)c2cc1OC | 9.26% |
| Cc1[nH]c(C)c(-c2ccc(Oc3ccc(Cl)cc3)cc2)c(=O)c1Br | 0.78% |
| CN(C)CCNC(=O)[C@H](Cc1ccccc1)NC(=O)c1ccc(O)c(-c2ccc(Cl)c(Cl)c2)c1 | 3.62% |
| OCC1CCN(Cc2ccc(-c3cccc(-c4nc5cc(F)ccc5[nH]4)c3)cc2)CC1 | 0% |
| Cc1ccc(O)cc1Nc1ccnc2cc(-c3ccccn3)ccc12 | 3.57% |
| O=C(Nc1ccc(OC2CCN(Cc3ccco3)CC2)c(Cl)c1)c1ccc2ncccc2c1 | 6.45% |
| Cc1[nH]n(-c2cccc(C(F)(F)F)c2)c(=O)c1-c1ccc(Cl)cc1 | 4.41% |
| Cc1[nH]c(C)c(-c2ccc(OCc3ccc(F)cc3)nc2)c(=O)c1Br | 3.57% |
| Cc1noc(C)c1CN1CCCN(c2ccc3c(c2)CCN(Cc2ccc(-c4ncc[nH]4)cc2)CC3)CC1 | 4.2% |
